# In paper PMC4242493:
# The other results are listed elsewhere or left out. The list includes weakly bound sequences.
# Target: MaxL homodimer (UniProt P61244)
# Assay: universal protein-binding microarray (PBM)
# Details: PBS-based mixture, 10 nM His-tagged protein dimer, 2% milk, 200 ng/uL BSA, 50 ng/uL salmon testes DNA, 0.02% TX-100; detection with Alexa 488 anti-His …; high values mean tight binding; most listed sequences are background and not binding sites; double strand, one strand shown
# UniProt P61244, sequence (P61244 whole entry): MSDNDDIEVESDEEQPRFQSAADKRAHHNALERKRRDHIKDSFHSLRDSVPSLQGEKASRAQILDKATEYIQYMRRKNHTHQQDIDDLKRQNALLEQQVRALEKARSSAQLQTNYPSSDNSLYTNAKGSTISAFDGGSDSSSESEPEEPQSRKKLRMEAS
row,Sequence,binding signal (normalized occupancy)
1,AACTGGGT,0.0709
2,AATGTAGC,0.0788
3,CTCAGACA,0.0793
4,CAGAGGGG,0.0714
5,AAAAACAA,0.0692
6,CAAGGAAC,0.079
7,CCTGATAC,0.0821
8,CAGTCTAG,0.067
9,AACGGAAC,0.0734
10,CAATCATA,0.0876
11,CTCGATAA,0.0739
12,GATCGAGC,0.0745
13,ACTCCGAC,0.0724
14,AGGAGGTA,0.0777
15,TCAGTAAA,0.0712
16,CCCCAGAG,0.0676
17,CGTAAACA,0.0753
18,CACCCACG,0.0964
19,CGATCGTA,0.0711
20,ACGAGGAG,0.0882
21,ACTTACTC,0.07
22,ACCACGGG,0.0834
23,CGTGTATA,0.0906
24,AAGCATGG,0.11
25,TCTCCTCA,0.0837

row,Sequence,binding signal (normalized occupancy)
1,CAGGTAAG,0.0782
2,CCATATAA,0.0848
3,ACCTCACG,0.0869
4,AGCGTACC,0.0675
5,GGTAGATA,0.0813
6,ATAGGCCG,0.0705
7,CCAAGCTA,0.0731
8,GCGACGGA,0.069
9,CCACAGGA,0.0722
10,GTTGAGTA,0.0752
11,ACCTTGTG,0.0883
12,CCTAGGCC,0.069
13,CGCCGTCA,0.0797
14,AGTACGGG,0.0741
15,AACATAAG,0.0778
16,ACTAAACA,0.0775
17,ACCCAGCG,0.0726
18,CTACGCGC,0.0727
19,ATTTATGG,0.0826
20,ACGCGCCT,0.0828
21,ATAGTGGG,0.0782
22,GACGCACA,0.0845
23,CGTGCGCC,0.0922
24,CGCGGCCA,0.071
25,AGCTCGTA,0.07

row,Sequence,binding signal (normalized occupancy)
1,ATAGTTTA,0.073
2,AAATGGTG,0.0754
3,AGTACGAT,0.0793
4,CCACTGCA,0.0761
5,AGGCTCGC,0.0699
6,ATCGATTA,0.0735
7,ACTCCATC,0.0768
8,GAGCAGAA,0.0709
9,CACGTTTC,0.105
10,CGGATGTA,0.0773
11,GCTCTTAA,0.0748
12,TCTTCCAA,0.0756
13,TAACGTAA,0.079
14,ATTTATAC,0.0745
15,CCGTGGAG,0.0796
16,ATCGGGAC,0.0751
17,ACAGTTGA,0.0742
18,GACCGAGA,0.0682
19,CACGGACA,0.0758
20,ACCAAGAC,0.0733
21,ACAGGTCG,0.0751
22,CGAAATAG,0.0683
23,GGAGGGAC,0.0689
24,CCGGAAGC,0.0674
25,CCCCCCGA,0.0822

row,Sequence,binding signal (normalized occupancy)
1,TAATCACA,0.0826
2,AATTATAC,0.0757
3,ATAGTGTG,0.0876
4,TAAAACAA,0.0728
5,AACCGGCG,0.0691
6,AGAAGTAA,0.0742
7,ACATGCGG,0.129
8,GGAATAAC,0.0748
9,CCCGAACC,0.0685
10,CACATCCG,0.077
11,GAATCGGA,0.0706
12,GGTTAGTA,0.0806
13,TGCCCCAA,0.0762
14,CCCTCAAC,0.0749
15,CGGTCTTA,0.0739
16,GATCCATA,0.0812
17,TCGAATAA,0.0757
18,ATTCTCTA,0.0764
19,GGTGAATA,0.073
20,CAGGCGAA,0.0678
21,ACGCTACT,0.0732
22,AAGGAACG,0.0758
23,GAATGTAA,0.0758
24,AGGCATGA,0.091
25,CTGAACGC,0.0734

row,Sequence,binding signal (normalized occupancy)
1,AAACTCAG,0.0711
2,CTAAACAA,0.077
3,ATTGGCCC,0.0756
4,GTAGACGA,0.0702
5,ACTCAGAC,0.0699
6,AGGTTCCG,0.0728
7,ACTACACG,0.0897
8,ACCTAACA,0.0777
9,GCAGAATA,0.0753
10,ACTTGTGG,0.0777
11,TGATCACA,0.0795
12,ACATTGGG,0.085
13,CACACTGA,0.0757
14,AGGAACAC,0.0726
15,CCTTCTTA,0.0756
16,ACCGAGGT,0.0689
17,CCAGGCAG,0.0677
18,GCCTTGCA,0.0698
19,CAAGGCCG,0.0691
20,AAAGGACC,0.0678
21,AGCGCACG,0.0877
22,CAAAGCCC,0.0672
23,AACAGTGT,0.0763
24,ACCACCTC,0.0834
25,AAAGAGAA,0.0711

row,Sequence,binding signal (normalized occupancy)
1,GGACATCC,0.0769
2,ACAATCGC,0.0791
3,GTATTATA,0.0781
4,CTATGATA,0.0805
5,GCCTCAAA,0.0708
6,AGATAAGC,0.0766
7,TACGACCA,0.0794
8,CTAGGTCA,0.0724
9,CCTAGTTC,0.0691
10,AGTTTACA,0.0773
11,ATTTTGCG,0.0728
12,CTGATCAA,0.0813
13,ACATCAGA,0.0759
14,ACGCTCCT,0.0753
15,CCGTTCCA,0.0724
16,AGGGTTTG,0.0716
17,ACCTTAAG,0.0714
18,CCCTCGAG,0.0761
19,CAGCCAGC,0.0754
20,CATTGTCC,0.076
21,GCTCCTTA,0.0685
22,CGCGTAAG,0.0752
23,CAAGTGGC,0.0744
24,CTCGAATA,0.0727
25,GGGGTGTA,0.0905

row,Sequence,binding signal (normalized occupancy)
1,CGTAGGCC,0.0746
2,GATCTCAC,0.0769
3,AGTACCGG,0.0705
4,CATGCGCC,0.111
5,TGGGGTAA,0.0814
6,ATGAGCGA,0.0715
7,ATCATCTC,0.076
8,CTATGTGA,0.0827
9,AAAATCGG,0.0732
10,CCGCCGTA,0.0682
11,AGGTGTTC,0.0811
12,CAAGACAC,0.0739
13,GTGCAAAC,0.0754
14,CGTGGGAG,0.0916
15,TATGCCGA,0.0757
16,CCTATACG,0.0802
17,CGTTATCC,0.0912
18,CATGAGTA,0.0969
19,CGAATTCC,0.0757
20,ATTCCCAA,0.0722
21,ATGGTGAA,0.0803
22,GAGAGGCC,0.0664
